In PubChem BioAssay AID720708 (National Center for Advancing Translational Sciences (NCATS), 2013):
Among all 360,000 compounds or so, about 660 (0.18%) were called active. Inconclusive results, whose numbers are uncertain, are shown with a selection of clear calls. Calls follow the shape of the dose curve; as a rule, active = well fitted inhibition curve with a large enough effect; inconclusive = small, poorly fitted or top-dose-only effect; inactive = no such curve, though single readings can be large or run the other way. Potencies of inconclusive entries are left out as doubtful fits.
% is scaled to controls: 0 for no effect and ±100 for the full control effect; potency is read from the fitted curve at half-maximal effect; tags tell the direction and shape of the fitted curve.
Also: nearly all actives have a fitted effect of over 45% in size.

What follows are compounds tested against Rap guanine nucleotide exchange factor 4 (Homo sapiens) (UniProt Q8WZA2) (assay: qHTS for Antagonist of cAMP-regulated guanine nucleotide exchange factor 2 (EPAC2): primary screen). Conditions: EPAC2 GEF exchange of Rap1B-BODIPY-GDP, fluorescence; activity, negative = inhibition: at 114 µM (top of the series) unless noted.
Sequence of UniProt Q8WZA2 (Q8WZA2 whole entry, looked up): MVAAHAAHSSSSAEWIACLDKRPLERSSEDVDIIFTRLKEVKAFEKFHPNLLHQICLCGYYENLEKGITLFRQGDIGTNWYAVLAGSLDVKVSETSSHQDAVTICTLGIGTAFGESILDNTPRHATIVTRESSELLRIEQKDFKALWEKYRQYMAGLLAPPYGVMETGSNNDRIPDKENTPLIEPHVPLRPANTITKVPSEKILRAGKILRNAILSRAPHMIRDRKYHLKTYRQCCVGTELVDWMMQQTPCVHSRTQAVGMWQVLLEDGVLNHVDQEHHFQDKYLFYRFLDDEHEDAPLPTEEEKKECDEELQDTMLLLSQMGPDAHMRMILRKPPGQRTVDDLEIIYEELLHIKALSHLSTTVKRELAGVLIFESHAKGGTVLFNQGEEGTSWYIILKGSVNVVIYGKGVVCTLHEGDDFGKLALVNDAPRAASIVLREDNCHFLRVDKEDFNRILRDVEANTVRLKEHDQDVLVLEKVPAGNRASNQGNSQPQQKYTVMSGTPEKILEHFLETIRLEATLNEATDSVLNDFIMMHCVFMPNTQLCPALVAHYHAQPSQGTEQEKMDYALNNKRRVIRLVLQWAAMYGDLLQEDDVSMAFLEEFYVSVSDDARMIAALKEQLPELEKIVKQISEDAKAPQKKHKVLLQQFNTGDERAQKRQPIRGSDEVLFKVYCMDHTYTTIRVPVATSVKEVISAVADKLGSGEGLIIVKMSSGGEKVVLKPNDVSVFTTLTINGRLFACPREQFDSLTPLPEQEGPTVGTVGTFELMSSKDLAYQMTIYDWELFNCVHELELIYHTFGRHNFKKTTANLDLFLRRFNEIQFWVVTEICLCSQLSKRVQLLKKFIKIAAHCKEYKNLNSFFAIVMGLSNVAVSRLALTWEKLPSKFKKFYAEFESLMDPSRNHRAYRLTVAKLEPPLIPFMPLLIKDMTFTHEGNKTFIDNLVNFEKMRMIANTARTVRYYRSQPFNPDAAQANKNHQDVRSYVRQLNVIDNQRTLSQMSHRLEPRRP
With `Cc1cccc(NS(=O)(=O)c2ccc(Br)s2)n1` the “activity, negative = inhibition” value was inactive: 5.28%.
`O=c1c2ccccc2nc(COc2ccccc2)n1/N=C/c1ccc(O)c(O)c1` was tested, and the Potency was inconclusive [inhibitor, partial curve].
With `O=c1c2c3n(c(=O)nc2[nH]n1-c1ccccc1)CCCCC3` the Potency was inconclusive [inhibitor, partial curve].
With `COC(=O)C1=C(O)/C(=C\c2ccc(CNS(=O)(=O)c3ccccc3)o2)N=C1C` the “activity, negative = inhibition” value was inactive: 28.7%.
For `Fc1ccc(C(Nc2ccccn2)c2c[nH]c3ccccc23)cc1` (stereo not given), the Potency was active: 44.7 µM.
In the case of `CC(=O)Nc1ccc(OC(=O)c2ccc(Br)c([N+](=O)[O-])c2)cc1`, the Potency is reported as inconclusive [inhibitor, partial curve].
For `CCc1ccc(OCc2n[nH]c(=S)n2C(C)CCCC(C)C)cc1` (stereo not given), the Potency was inconclusive [inhibitor, full curve].
In the case of `Cc1ccc(Cl)cc1NC(=O)COC(=O)CC1CCCCC1`, the Potency is reported as inconclusive [inhibitor, partial curve].
`COc1ccccc1CN(C)CC(=O)Nc1cccc2ccccc12` was tested, and the Potency was inconclusive [inhibitor, full curve].
With `Cc1ccc(C)c(CSCc2nc3ccccc3[nH]2)c1` the Potency was inconclusive [inhibitor, partial curve].
In the case of `CCN1CC=C2C(C#N)=C(N)C(C#N)(C#N)[C@H](c3cccc(OC)c3OC)[C@H]2C1`, the “activity, negative = inhibition” value is reported as inactive: -20%.
With `C=CCOC(=O)C1=C(C)NC(=O)NC1c1ccc(OC(=O)c2ccco2)c(OC)c1` (stereo not given) the “activity, negative = inhibition” value was inactive: 3.47%.
For `O=C(c1ccco1)[C@@H]1[C@@H]2C(=O)N(c3ccc(F)cc3)C(=O)[C@@H]2[C@H]2C=Cc3ccccc3N21`, the “activity, negative = inhibition” value was inactive: -2.29%.
`O=C(Nc1ccc(C(=O)O)cc1)/C(=C\c1ccc2c(c1)OCO2)NC(=O)c1ccc(Br)cc1` was tested, and the Potency was inconclusive [inhibitor, partial curve].
For `Cc1cccc(C)c1-n1nnnc1C(c1ccnc2ccccc12)N(CCC#N)Cc1ccccc1` (stereo not given), the Potency was inconclusive [inhibitor, partial curve].
For `COc1ccc(N=C2SC(CC(=O)Nc3ccccc3)C(=O)N2Cc2ccco2)cc1` (stereo not given), the Potency was inconclusive [inhibitor, full curve, poor fit].
With `COc1ccc(/C=C2\C(=O)ON=C2c2ccccc2)cc1` the “activity, negative = inhibition” value was inactive: -4.2%.
For `CC(C)(C)c1cc(C2=CSC3=NCCN23)cc(C(C)(C)C)c1O`, the “activity, negative = inhibition” value was inactive: 1.04%.
In the case of `CC(=O)OC1CSC2c3ccccc3C(=O)N2Cc2sccc21` (stereo not given), the Potency is reported as inconclusive [inhibitor, partial curve].
With `COc1ccc(OC)c2c(C)cc(NCCN3CCOCC3)nc12` the “activity, negative = inhibition” value was inactive: 7.87%.
`COc1ccc(OC)c(CCNC(=O)c2ccc3c(=O)[nH]c4c(C(=O)NC(C)C)sc(=S)n4c3c2)c1` was tested, and the Potency was inconclusive [inhibitor, full curve].
`COc1ccccc1N(C)S(=O)(=O)c1ccc(C(=O)Nc2cc(F)ccc2C)cc1` was tested, and the Potency was inconclusive [inhibitor, partial curve].
For `CN(C)c1ccc(N=Nc2ccccc2C(=O)OCC(=O)N2CCCCCC2)cc1`, the Potency was inconclusive [inhibitor, partial curve].
For `Clc1ccccc1-c1nnc2sc(-c3ccc(Br)o3)nn12`, the “activity, negative = inhibition” value was inactive: -0.485%.
In the case of `Cc1cscc1-c1nc(NCC2CC2)nc2ccsc12`, the Potency is reported as inconclusive [inhibitor, full curve, poor fit].
In the case of `O=C(CCCOc1ccc(Cl)cc1Cl)Nc1ccc(O)cc1C(=O)O`, the Potency is reported as inconclusive [inhibitor, partial curve, poor fit].
`COc1ccc([N+](=O)[O-])cc1-c1nc2ccccc2nc1-c1ccccc1` was tested, and the Potency was inconclusive [inhibitor, partial curve].
For `CCOC(=O)C1=C(C)N=c2s/c(=C/c3cccc([N+](=O)[O-])c3O)c(=O)n2C1c1ccc(OC)cc1OC` (stereo not given), the Potency was inconclusive [inhibitor, full curve, poor fit].
For `O=C(N/N=C/c1ccc[nH]1)c1cc2ccccc2cc1O`, the Potency was inconclusive [inhibitor, full curve, poor fit].
With `O=C(NC(=S)Nc1ccc(Cl)c(C(=O)O)c1)c1cncc(Br)c1` the Potency was inconclusive [inhibitor, single point].
`COC(=O)[C@H](Cc1ccccc1)NC(=O)c1ccc2ccccc2n1` was tested, and the Potency was inconclusive [inhibitor, partial curve].
For `COc1cccc(CN(C)C(=O)c2ccccc2Sc2ccccc2C#N)c1OC`, the Potency was inconclusive [inhibitor, single point].
With `COc1ccc(C(=O)n2nc(-c3ccccc3)nc2N)cc1OC` the Potency was inconclusive [inhibitor, full curve, poor fit].
`O=C(NCc1ccc(F)cc1)c1cc(C2CCCCN2C(=O)c2ccc3c(c2)CCO3)on1` (stereo not given) was tested, and the Potency was inconclusive [inhibitor, full curve, poor fit].
With `Cn1c(NNC(=O)c2ccc(C(C)(C)C)cc2)cc(=O)n(C)c1=O` the “activity, negative = inhibition” value was inactive: -0.721%.
`C[C@@H]1CN([C@H](C)CO)C(=O)CCCn2nncc2CO[C@@H]1CN(C)C(=O)Nc1cccc2ccccc12` was tested, and the “activity, negative = inhibition” value was inactive: -1.37%.
In the case of `CCOC1=C2[C@@H](CN(S(=O)(=O)c3ccc(C)cc3)[C@H]2c2ccccc2Cl)[C@H]2C(=O)NC(=O)[C@H]2C1`, the Potency is reported as inconclusive [inhibitor, partial curve].
With `CCC[C@H]1CC(=O)C=C(c2ccc(OC)cc2)ON1C(=O)OC(C)(C)C` the Potency was inconclusive [inhibitor, partial curve, poor fit].
For `CC(SC1=NCCN1S(=O)(=O)c1ccccc1)c1ccccc1` (stereo not given), the Potency was inconclusive [inhibitor, partial curve].
For `Cc1cccc(C)c1NC(=O)CN1C(=O)S/C(=C\c2cccn2-c2cccc(C(=O)O)c2)C1=O`, the Potency was inconclusive [inhibitor, partial curve].
For `CC1(C(=O)Nc2ccc(Cl)c(Cl)c2)CCN1Cc1ccccc1OC(F)F` (stereo not given), the Potency was inconclusive [inhibitor, full curve].
For `COc1ccc(OC(F)(F)F)cc1CC1(C)C(=O)Nc2ccc(S(=O)(=O)NC3CCCCC3)cc21` (stereo not given), the Potency was inconclusive [inhibitor, partial curve].
`CCCc1cc(=O)[nH]c(SCC(=O)Nc2nc(-c3ccccc3)cs2)n1` was tested, and the activity, negative = inhibition was inconclusive: -14.3% [inhibitor].
With `O=S(=O)(Nc1ccc(Cl)cc1NS(=O)(=O)c1ccccc1)c1ccccc1` the Potency was inconclusive [inhibitor, partial curve].
In the case of `CC(C)(C)NC(=O)COC(=O)c1ccc(Cl)c(S(N)(=O)=O)c1`, the “activity, negative = inhibition” value is reported as inactive: 17.6%.
With `COc1ccc(C=C(C(=O)c2ccccc2)c2ccccc2)cc1` the Potency was inconclusive [inhibitor, full curve].
`CCCCn1c(SCc2ccc(Cl)cc2)nc2c1c(=O)[nH]c(=O)n2C` was tested, and the “activity, negative = inhibition” value was inactive: -5.89%.
For `CCN(C(=O)COC(=O)c1cc(S(=O)(=O)N(C)C)ccc1Cl)C1CCS(=O)(=O)C1` (stereo not given), the “activity, negative = inhibition” value was inactive: 9.66%.
With `CCN(CC)c1ccc(/C=N/N2C(=O)c3ccccc3C2=O)cc1` the “activity, negative = inhibition” value was inactive: -0.628%.
With `CCOC(=O)[C@@H](NC(=O)/C=C/[C@H]1O[C@@H](n2cc(C)c(=O)[nH]c2=O)C[C@@H]1O)C(C)C` the Potency was inconclusive [inhibitor, single point].
With `O=S(=O)(c1ccc(F)cc1)N1CCN=C1SCc1cccc(F)c1` the Potency was inconclusive [inhibitor, full curve].
For `O=C1C(=Cc2ccc(F)cc2)CCc2ccccc21`, the Potency was inconclusive [inhibitor, full curve].
In the case of `CCNC(=O)C1(C)CCCN(Cc2cccc3c(OC)cc(C(=O)OCC)cc23)C1` (stereo not given), the Potency is reported as inconclusive [inhibitor, partial curve].
In the case of `CCCCn1c2nc3ccccc3nc2c2c(=O)n(-c3ccccc3)cnc21`, the Potency is reported as inconclusive [inhibitor, single point].
With `COc1ccc(N2CCCC2)c(NC(=O)COc2ccccc2Cl)c1` the Potency was inconclusive [inhibitor, partial curve].
With `Cc1ccc(S(=O)(=O)/N=C2\C=C(Nc3cccc(C(=O)O)c3)C(=O)c3ccccc32)c(C)c1` the Potency was inconclusive [inhibitor, partial curve].
With `CC1CN(c2ccccc2)NC1=O` (stereo not given) the “activity, negative = inhibition” value was inactive: 14.9%.
For `COc1ccccc1N(CC(=O)Nc1ccc(C)cc1Cl)S(=O)(=O)c1cccs1`, the Potency was inconclusive [inhibitor, full curve, poor fit].
With `O=C1[C@H](Cc2ccccc2)NCC=CC[C@@H](c2ccc(Cl)cc2)N1Cc1ccccc1` the Potency was inconclusive [inhibitor, partial curve].
`O=C1/C(=C/c2cccs2)SC(=S)N1NS(=O)(=O)c1ccccc1` was tested, and the Potency was inconclusive [inhibitor, partial curve].
For `COc1cc(CC(=O)Nc2ccccc2N2CCCCC2)cc(OC)c1OC`, the Potency was inconclusive [inhibitor, partial curve, poor fit].
For `Cc1onc(-c2c(Cl)cccc2Cl)c1C(O)c1ccc(F)cc1` (stereo not given), the Potency was inconclusive [inhibitor, single point].
In the case of `COc1cccc(Cn2c(=O)sc3ccccc3c2=O)c1`, the “activity, negative = inhibition” value is reported as inactive: -25%.
`C=C[C@]1(C)C=C2C(=O)[C@@]3(O)OC(=O)[C@@]4(CCCC(C)(C)[C@H]34)[C@@]2(O)CC1` was tested, and the Potency was inconclusive [inhibitor, full curve].
In the case of `CN1C(=O)/C(=C2/C=Cc3ccccc3N2CCCS(=O)(=O)O)SC1=S`, the Potency is reported as inconclusive [inhibitor, partial curve].
